Values joined by “and” are separate entries in the source; they are usually repeats but may differ in a detail not shown here. Identical values can stand only once. The whole screen tested about 110,000 compounds, of which about 230 (0.21%) showed an effect of 50% or more. The list shows a part of the results.
What follows are molecules tested against DPAP1 (Plasmodium falciparum, UniProt Q8IIJ9) (assay: primary screen, percent inhibition; read by cleavage of a fluorogenic dipeptide substrate; higher = more effect of the substance).
Chain of DPAP1 (Q8IIJ9 whole entry, looked up): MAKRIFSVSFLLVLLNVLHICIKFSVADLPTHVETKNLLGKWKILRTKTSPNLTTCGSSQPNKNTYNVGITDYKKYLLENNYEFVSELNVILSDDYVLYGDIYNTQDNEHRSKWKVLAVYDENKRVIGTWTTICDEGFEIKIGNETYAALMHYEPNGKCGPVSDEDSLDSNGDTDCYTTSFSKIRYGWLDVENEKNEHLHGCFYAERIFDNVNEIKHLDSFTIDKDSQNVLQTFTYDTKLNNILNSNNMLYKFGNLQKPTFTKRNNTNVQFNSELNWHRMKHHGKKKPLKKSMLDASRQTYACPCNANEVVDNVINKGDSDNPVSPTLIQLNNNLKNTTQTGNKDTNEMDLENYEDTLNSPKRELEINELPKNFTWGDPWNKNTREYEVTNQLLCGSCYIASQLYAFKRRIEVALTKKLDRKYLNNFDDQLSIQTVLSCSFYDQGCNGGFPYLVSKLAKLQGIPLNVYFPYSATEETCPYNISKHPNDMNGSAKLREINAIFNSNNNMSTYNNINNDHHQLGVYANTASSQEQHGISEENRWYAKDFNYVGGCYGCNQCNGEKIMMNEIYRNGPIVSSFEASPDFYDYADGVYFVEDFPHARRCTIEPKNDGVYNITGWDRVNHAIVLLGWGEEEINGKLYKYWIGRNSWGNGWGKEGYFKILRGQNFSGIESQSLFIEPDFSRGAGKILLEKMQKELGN
Parameters: species or system P. falciparum D10 trophozoite lysates; single well
O=C(Cc1cccc2ccccc12)NC1CCCCCC1 was tested, and the “% Inhibition @ 10 uM” value was 0.238%.
With OC1CCCN(Cc2ccccc2Cl)C1 (stereo not shown) the “% Inhibition @ 10 uM” value was 3.16%.
O=C1C2CC=CCC2C(=O)N1c1ccccc1 (stereo not shown) was tested, and the “% Inhibition @ 10 uM” value was -5.84%.
COc1ccc(-c2nc3nc(C)c(Cl)c(C)n3n2)cc1 was tested, and the “% Inhibition @ 10 uM” value was -0.671%.
In the case of CCC1(CC)C(=O)NC(=O)N(C(=O)c2ccccc2)C1=O, the “% Inhibition @ 10 uM” value is reported as -3.58%.
With CC(C)CCNC(=O)C1CCCN(c2nnc(-n3cccc3)s2)C1 (stereo not shown) the “% Inhibition @ 10 uM” value was 1.15%.
For N#Cc1ccc(Cn2cc(C(=O)C(=O)N3CCCCC3)c3ccccc32)cc1, the “% Inhibition @ 10 uM” value was -0.124%.
For CCOC(=O)c1cnc2c(ccc3ccccc32)c1NCCN(C)C, the “% Inhibition @ 10 uM” value was -2.87%.
With CN(CC(=O)Nc1ccc(S(N)(=O)=O)cc1)S(=O)(=O)c1cc(Cl)ccc1Cl the “% Inhibition @ 10 uM” value was -2.8%.
For CN(C)c1ccc2c(c1)OC(N)=C(C#N)C2c1ccc(C(F)(F)F)cc1 (stereo not shown), the “% Inhibition @ 10 uM” value was 6.41%.
In the case of CCN(CC)C(=O)C1CCN(c2ncnc3c2nc2n3CCCCC2)CC1, the “% Inhibition @ 10 uM” value is reported as 6.14%.
With Cc1ccc(NS(=O)(=O)c2cccc(C(=O)NCc3ccccc3)c2)cc1 the “% Inhibition @ 10 uM” value was 3.25%.
In the case of CCN(CC)C(=O)C1CCCN(Cc2cccc(F)c2)C1 (stereo not shown), the “% Inhibition @ 10 uM” value is reported as -1.92%.
For CCCOc1ccc2ccccc2c1/C=N/n1c(C)nnc1-n1nc(C)cc1C, the “% Inhibition @ 10 uM” value was -4.85%.
In the case of Cn1c(C(=O)NCc2ccco2)cc2c(=O)n3ccccc3nc21, the “% Inhibition @ 10 uM” value is reported as 2.03%.
With O=C(Cc1ccccc1)NCCCc1nc2ccccc2n1Cc1ccccc1F the “% Inhibition @ 10 uM” value was -1.29%.
In the case of C=CCOc1ccc(C(=O)NCC2OCCc3ccccc32)cc1 (stereo not shown), the “% Inhibition @ 10 uM” value is reported as -3.41%.
With CCC(C)/N=c1/c(-c2ccc(C)cc2)c(O)c1=O (stereo not shown) the “% Inhibition @ 10 uM” value was -2.57%.
O=c1oc(-c2ccc(Br)cc2)nc2ccccc12 was tested, and the “% Inhibition @ 10 uM” value was 4.22%.
For Nc1cc(-c2ccccc2)nn1S(=O)(=O)c1cc(Cl)sc1Cl, the “% Inhibition @ 10 uM” value was -0.495%.
For CN(C)c1ccc(C2C3C(=O)N(Cc4ccccc4)C(=O)C3ON2c2ccccc2)cc1 (stereo not shown), the “% Inhibition @ 10 uM” value was -2.8%.
For CN(C1CCCCC1)S(=O)(=O)c1ccc(N)cc1, the “% Inhibition @ 10 uM” value was 2.32%.
With CCCCCCN1CC(=O)C(c2nc3ccccc3[nH]2)=C1N the “% Inhibition @ 10 uM” value was 3.74%.
O=C(Nc1nnc(N2CCCCC2)s1)NC12CC3CC(CC(C3)C1)C2 was tested, and the “% Inhibition @ 10 uM” value was -4.68%.
In the case of O=C(CCCn1c(=O)c2cccn2c2cccnc21)N1CCC(Cc2ccccc2)CC1, the “% Inhibition @ 10 uM” value is reported as 0.677%.
With O=C(O)C1CCCCC1C(=O)Nc1nc2ccc(Cl)cc2s1 (stereo not shown) the “% Inhibition @ 10 uM” value was -4.7%.
For Cc1ccc(Cn2c(C(=O)O)c(CNC3CCC(C)CC3)c3ccc(C)cc32)cc1 (stereo not shown), the “% Inhibition @ 10 uM” value was 8.35%.
In the case of O=C(CN1N=C(c2ccccc2)CCC1=O)NCCCN1CCN(Cc2ccccc2)CC1, the “% Inhibition @ 10 uM” value is reported as -4.83%.
CCc1ccc(S(=O)(=O)N2CCN(S(=O)(=O)c3ccc(CC)cc3)C(C)C2)cc1 (stereo not shown) was tested, and the “% Inhibition @ 10 uM” value was 2.26%.
For CC[Si](C)(CC)CCCn1c(=O)c2c(nc(N3CCOCC3)n2C)n(C)c1=O, the “% Inhibition @ 10 uM” value was -1.47%.
In the case of Cc1cc(C)c(S(=O)(=O)/N=C2/C=C(SCC(=O)O)C(=O)c3ccccc32)c(C)c1, the “% Inhibition @ 10 uM” value is reported as 0.0539%.
With O=C(O)C1(c2ccccc2)CCN(Cc2ccccc2)CC1 the “% Inhibition @ 10 uM” value was -1.33%.
With O=C(CCCN1C(=O)c2ccccc2C1=O)N1CCCCC1 the “% Inhibition @ 10 uM” value was -2.17%.
With N#Cc1nc(-c2ccc(F)cc2)oc1N1CCCCC1 the “% Inhibition @ 10 uM” value was -3.14%.
For Cc1ccc(C)c(CNC(=O)c2nc(O)c3nnn(CC4CCCO4)c3n2)c1 (stereo not shown), the “% Inhibition @ 10 uM” value was -5.51%.
With Cc1ccnn1CCC(=O)O the “% Inhibition @ 10 uM” value was -2.28%.
In the case of CCc1nnc(SCC(=O)N(C)C2CCCCC2)c2cc3sc(C)cc3n12, the “% Inhibition @ 10 uM” value is reported as -12.3%.
COCCCN1CN(Cc2ccco2)CNC1=S was tested, and the “% Inhibition @ 10 uM” value was -9.59%.
In the case of CC1CCC2C(=O)N(CNc3ccc(Cc4ccncc4)cc3)C(=O)C2C1 (stereo not shown), the “% Inhibition @ 10 uM” value is reported as -3.83%.
For COc1ccc(CCNc2nn3nnnc3c3ccccc23)cc1OC, the “% Inhibition @ 10 uM” value was 1.15%.
CCCc1[nH]nc2c1C(c1sccc1C)C(C#N)=C(N)O2 (stereo not shown) was tested, and the “% Inhibition @ 10 uM” value was -0.725%.
With c1cncc(-c2nn3cnnc3s2)c1 the “% Inhibition @ 10 uM” value was 5.43%.
With O=C(c1ccccc1)c1cn(CC(=O)N2CCOCC2)c2ccccc12 the “% Inhibition @ 10 uM” value was -0.0735%.
With COc1ccccc1OCC(=O)Nc1ccc(S(=O)(=O)N2CCCCCC2)cc1 the “% Inhibition @ 10 uM” value was -0.425%.
With O=C(Nc1ccc(Br)cc1)/C(=C/c1cccnc1)NC(=O)c1ccccc1 the “% Inhibition @ 10 uM” value was 2.08%.
In the case of Cc1cccc(N2C(=O)CC(NC3CCCCC3)C2=O)c1 (stereo not shown), the “% Inhibition @ 10 uM” value is reported as 1.78%.
Cc1ccccc1C(=O)N1CCN(C/C=C/c2ccccc2)CC1 was tested, and the “% Inhibition @ 10 uM” value was -3.27% and 3.47%.
In the case of COc1ccc(OC)c(C2C3=C(O)CC(C)(C)CC3=NC(C)=C2C(=O)Nc2ccccc2F)c1 (stereo not shown), the “% Inhibition @ 10 uM” value is reported as -9.33%.
In the case of Cc1ccc2oc(=O)n(Cc3ccc(OC(C)C)cc3)c2c1, the “% Inhibition @ 10 uM” value is reported as 6.98%.
With Cc1nn(-c2ccc(F)cc2)c(O)c1/C=N/c1c(C)nn(C)c1C the “% Inhibition @ 10 uM” value was -0.68%.
COc1ccc(-c2nc3ccccc3n2C)cc1OC was tested, and the “% Inhibition @ 10 uM” value was -4.07%.
For CC12c3ccccc3C(c3ccccc31)C1C(=O)NN(c3ccccc3)C(=O)C12 (stereo not shown), the “% Inhibition @ 10 uM” value was -0.759%.
For COc1ccccc1/C=C/CN1CCN(c2ccc(Cl)cc2)CC1, the “% Inhibition @ 10 uM” value was 0.0792%.
For CC1CC(C)CN(S(=O)(=O)c2ccccc2[N+](=O)[O-])C1 (stereo not shown), the “% Inhibition @ 10 uM” value was 3.53%.
CC(C)C(=O)Nc1ccc(NC(=O)c2cc(Br)ccc2Cl)cc1 was tested, and the “% Inhibition @ 10 uM” value was -7.34%.
For Cc1ccc(CCNc2c(-c3ccc(C(C)C)cc3)c(=O)c2=O)cc1, the “% Inhibition @ 10 uM” value was -1.98%.
For CCOc1ccc(C(=O)OC2CCCN(C)C2)cc1 (stereo not shown), the “% Inhibition @ 10 uM” value was 3.8%.
In the case of Cc1ccc2nc(C)cc(Nc3ccc4c(c3)OCCO4)c2c1, the “% Inhibition @ 10 uM” value is reported as -1.84%.
In the case of CCOC(=O)c1ccc(-n2c(C)cc(C=C3C(=O)c4ccccc4C3=O)c2C)cc1, the “% Inhibition @ 10 uM” value is reported as 6.51%.
CCOc1ccc(NC(=O)C2CC(=O)N(C)/C(=N/c3ccc(OC)cc3)S2)cc1 (stereo not shown) was tested, and the “% Inhibition @ 10 uM” value was -13.4%.
For CC(C)Cn1c(-c2nonc2NC(=O)c2ccccc2Cl)nc2ccccc21, the “% Inhibition @ 10 uM” value was -1.92%.
In the case of CCCSCCCNC(=O)Cn1nc(C)n2c(cc3sccc32)c1=O, the “% Inhibition @ 10 uM” value is reported as -1.58%.
COc1ccc(CNC(=O)C2CCN(S(=O)(=O)N3CC(C)CC(C)C3)CC2)c(OC)c1 (stereo not shown) was tested, and the “% Inhibition @ 10 uM” value was 3.59%.
For CCN(CC)CCCNC(=S)N1CCn2c(nc3ccccc32)C1, the “% Inhibition @ 10 uM” value was 3.96%.
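Further: 30 min substrate incubation versus DMSO and 10 µM JCP410 controls.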
